Reference: publication doi:10.64898/2025.12.08.692793 (bioRxiv, 2025)

B1: metabotropic glutamate receptor 2 (mGlu2) (receptor)
chain: EGPAKKVLTLEGDLVLGGLFPVHQKGGPAEDCGPVNEHRGIQRLEAMLFALDRINRDPHLLPGVRLGAHILDSCSKDTHALEQALDFVRASLSRGADGSRHICPDGSYATHGDAPTAITGVIGGSYSDVSIQVANLLRLFQIPQISYASTSAKLSDKSRYDYFARTVPPDFFQAKAMAEILRFFNWTYVSTVASEGDYGETGIEAFELEARARNICVATSEKVGRAMSRAAFEGVVRALLQKPSARVAVLFTRSEDARELLAASQRLNASFTWVASDGWGALESVVAGSEGAAEGAITIELASYPISDFASYFQSLDPWNNSRNPWFREFWEQRFRCSFRQRDCAAHSLRAVPFEQESKIMFVVNAVYAMAHALHNMHRALCPNTTRLCDAMRPVNGRRLYKDFVLNVKFDAPFRPADTHNEVRFDRFGDGIGRYNIFTYLRAGSGRYRYQKVGYWAEGLTLDTSLIPWASPSAGPLPASRCSEPCLQNEVKSVQPGEVCCWLCIPCQPYEYRLDEFTCADCGLGYWPNASLTGCFELPQEYIRWGDAWAVGPVTIACLGALATLFVLGVFVRHNATPVVKASGRELCYILLGGVFLCYCMTFIFIAKPSTAVCTLRRLGLGTAFSVCYSALLTKTNRIARIFGGAREGAQRPRFISPASQVAICLALISGQLLIVVAWLVVEAPGTGKETAPERREVVTLRCNHRDASMLGSLAYNVLLIALCTLYAFKTRKCPENFNEAKFIGFTMYTTCIIWLAFLPIFYVTSSDYRVQTTTMCVSVSLSGSVVLGCLFAPKLHIILFQPQKNVVSHRAPTSRFGSAAARASSSLGQGSGSQFVPTVCNGREVVDSTTSSL
B2: SNAP-tagged mGlu2 WT (receptor)
chain: B1 chain
modifications: fluorophore covalently attached (SNAP tag)

Columns and labels:
cryo-EM structure = target: the molecule itself; assay: cryo-EM structure
cross-linking = target: the molecule itself; assay: cross-linking

| Protein | stoichiometry N (cryo-EM structure) | stoichiometry N (cross-linking) |
| --- | --- | --- |
| B1 | 2 | – |
| B2 | – | 2 |
